Test results from PubChem BioAssay AID1347044 (National Center for Advancing Translational Sciences (NCATS), 2019).
This is one part of the list. Shown are side measurements of this screen, not its main read-out; they come without a call. Most of these compounds were active or inconclusive in the main read-out, so they are no random draw. Words in brackets tell the shape of the fitted curve; partial curves, single points and poor fits give uncertain potencies.
Tags describe the fitted curve by direction and shape.

Test: Natriuretic polypeptide receptor (hNpr1) antagonism - Confirmation; further: nearly all actives have a fitted effect of over 70% in size
Details: HEK293 hNpr1 cGMP GloSensor luminescence, ANP-stimulated; measured here: HEK-hNpr1 cytotoxicity, CellTiter-Glo
Procedure, shortened: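 HEK293 cells co-expressing hNpr1 and GloSensor cGMP sensor preloaded 2 h with 2% GloSensor reagent, compounds added 30 min at room temperature, then 0.1 nM hNppA for 20 min; luminescence read before and after agonist. Cytotoxicity counter-screen run.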
In the case of `COc1ccc(CN2CC3(CCN(C(=O)Nc4cccc(C(F)(F)F)c4)CC3)C2=O)cc1`, the CC50 is reported as 21.7 µM [falling, partial curve]. In the case of `FC(F)(F)C1CN(c2ccnc3ccc(Cl)cc23)CCO1` (configuration not stated), the CC50 is reported as 17.2 µM [falling, partial curve]. With `COc1ccc(CNC(=O)c2ccc(Cn3ccn4nc5c(c4c3=O)CCCC5)cc2)cc1` the CC50 was 27.3 µM [falling, partial curve]. With `COc1cccc(-c2cc(C3CCN(C(=O)c4ccccc4Br)CC3)[nH]n2)c1` the CC50 was 21.7 µM [falling, partial curve]. With `COc1cccc(-c2noc(CC3CCN(C(=O)c4ccc(OC)c(OC)c4)CC3)n2)c1` the CC50 was 15.3 µM [falling, partial curve]. For `Cc1nc(N2CCC(NC(=O)c3nccc4ccccc34)CC2)cc(C(F)(F)F)n1`, the CC50 was 15.3 µM [falling, partial curve]. For `Cc1ccc(N2CCN(C(=O)C3CCCN(c4cnn(Cc5ccccc5)c(=O)c4)C3)CC2)cc1` (configuration not stated), the CC50 was 17.2 µM [falling, partial curve]. With `CC1(COc2cccnc2)COc2ccc(C(=O)N3CCN(c4ccccn4)CC3)cc2N1` (configuration not stated) the CC50 was 10.9 µM [falling, partial curve]. For `COc1nccc(N2CCC(CC(=O)NCc3ccc(F)c(Cl)c3)CC2)n1`, the CC50 was 19.3 µM [falling, partial curve]. With `COc1ccc(-c2noc(CC3CCN(C(=O)C4(c5ccc(OC)cc5)CC4)CC3)n2)cc1` the CC50 was 5.44 µM [falling, partial curve]. With `Cn1cc(CC(=O)N2CCCc3ncc(C(=O)N4CCC(c5ccccc5)CC4)cc32)c2ccccc21` the CC50 was 21.7 µM [falling, partial curve]. For `FC(F)(F)c1cccc2c(N3CCOC(C(F)(F)F)C3)ccnc12` (configuration not stated), the CC50 was 17.2 µM [falling, partial curve]. In the case of `COc1cccc(N2CCN(C(=O)c3cc4n(n3)CC(c3ccc(Cl)cc3)OC4)CC2)c1` (configuration not stated), the CC50 is reported as 27.3 µM [falling, partial curve, poor fit]. With `CC1=NS(=O)(=O)N(C)C=C1C(=O)OCc1nc(-c2ccc(OC(F)(F)F)cc2)no1` the CC50 was 17.2 µM [falling, partial curve]. For `O=C1COc2ccc(Nc3ccc(Cl)cc3)nc2CN1Cc1nc2ccccc2s1`, the CC50 was 49.8 µM [falling, single point]. In the case of `CNC(=O)c1cccc(NC(=O)c2nc(C(O)c3ccccc3F)oc2C)c1` (configuration not stated), the CC50 is reported as 31.4 µM [falling, partial curve]. For `O=C(c1ccc(-c2ncc3cnc(-c4cccc(F)c4)cn23)cc1)N1CCc2cccnc21`, the CC50 was 7.89 µM [falling, full curve]. With `CC(C)NC(=O)N1C2CCC1CN(c1ccc(C(F)(F)F)cc1)C2` the CC50 was 17.1 µM [falling, partial curve]. In the case of `Clc1cnccc1CN1CCNc2cnc(-c3ccccc3)cc2C1`, the CC50 is reported as 31.4 µM [falling, partial curve]. For `O=C(NCc1cccc(F)c1)c1nc2c(o1)CCN(Cc1cc(F)ccc1F)CC2`, the CC50 was 39.6 µM [falling, single point]. With `O=C(NCc1ccc2c(c1)OCO2)c1csc(N2CCN(c3ccc(F)cc3)CC2)n1` the CC50 was 19.3 µM [falling, partial curve]. For `O=C1NN=C(c2cccnc2)C12CCN([S+](=O)([O-])c1cccc(C(F)(F)F)c1)CC2`, the CC50 was 21.7 µM [falling, partial curve]. In the case of `CN(C)c1cccc(C(=O)N2CCC(OCCOc3ccc(F)cc3)CC2)c1`, the CC50 is reported as 21.7 µM [falling, partial curve]. For `Nc1ncccc1CN1CCC2(CC1)COCCN2C(=O)OCc1ccccc1`, the CC50 was 12.5 µM [falling, partial curve]. For `COc1ccc(C(=O)N2CCC3(CC2)N=C(c2ccc(Br)cc2)NO3)cc1OC`, the CC50 was 12.2 µM [falling, partial curve]. With `CCc1noc(-c2cn(C3CCN(C(=O)c4ccc(C(C)(C)C)cc4)C3)nn2)n1` (configuration not stated) the CC50 was 24.3 µM [falling, partial curve]. With `CC(C)CN[C@H]1CO[C@H]2[C@@H]1OC[C@@H]2Nc1nccc(-c2cccs2)n1` the CC50 was 31.4 µM [falling, partial curve]. With `CCOc1ccc(NC(=O)CCC2CCN(c3cc(NC4CC4)ncn3)CC2)cc1` the CC50 was 19.3 µM [falling, partial curve]. In the case of `O=C1c2cnc(-c3ccncc3)nc2OCCN1Cc1ccc(F)cc1F`, the CC50 is reported as 28 µM [falling, partial curve]. In the case of `Cc1cc(F)cc(CN2CCc3nc(C(=O)NCC4CC4)oc3CC2)c1`, the CC50 is reported as 28 µM [falling, partial curve]. For `c1ccc(CNC[C@H]2COCc3nc4ccccc4n32)cc1`, the CC50 was 25 µM [falling, partial curve]. In the case of `Cc1ccc(OCC(=O)N2CCC(Cc3nc(-c4ccc(F)cc4)no3)CC2)cc1`, the CC50 is reported as 15.3 µM [falling, partial curve]. For `O=C(c1ccc(F)cc1Cl)N1CCC(Cc2nc(-c3ccc(F)cc3)no2)CC1`, the CC50 was 4.85 µM [falling, full curve]. With `COc1ccc(-c2noc(CC3CCN(C(=O)CCc4cccc(OC)c4)CC3)n2)cc1` the CC50 was 24.3 µM [falling, partial curve]. With `O=C(c1csc(N2CCN(c3ccccc3)CC2)n1)N1CCN(c2ccccn2)CC1` the CC50 was 24.3 µM [falling, partial curve]. With `COc1ccc(C(=O)N2CCC3(CC2)N=C(c2ccc(Cl)cc2)NO3)cc1OC` the CC50 was 15.3 µM [falling, partial curve]. For `COc1ccc(CC(=O)N2CCC(Cc3nc(-c4ccc(F)cc4)no3)CC2)cc1OC`, the CC50 was 8.62 µM [falling, partial curve]. With `O=C(c1ccc(F)cc1F)N1CCC2(CC1)N=C(c1ccc(Cl)cc1)NO2` the CC50 was 24.3 µM [falling, partial curve]. With `Cn1cc(-c2cccc(O)c2)c2nc(COc3ccc(Cl)cc3)cn2c1=O` the CC50 was 39.6 µM [falling, partial curve]. In the case of `O=C(CC1CCCCC1)N1CCC(Cc2nc(-c3ccc(F)cc3)no2)CC1`, the CC50 is reported as 12.2 µM [falling, partial curve]. In the case of `O=C1COc2ccc(NCCOc3ccccc3)nc2CN1Cc1ccccc1F`, the CC50 is reported as 35.3 µM [falling, partial curve]. With `CCC(C)NC(=O)N1CC(Oc2ccc(-c3nc(-c4ccccc4)no3)cc2)C1` (configuration not stated) the CC50 was 1.72 µM [falling, full curve]. With `COc1ccc(CN2C[C@@H](F)[C@@H](OCc3nc4ccc(C(F)(F)F)cc4[nH]3)C2)cn1` the CC50 was 31.4 µM [falling, partial curve]. With `CCc1ccc(C(=O)N2CCN(c3cc(-c4ccc(F)cc4)[nH]n3)CC2)cc1` the CC50 was 30.6 µM [falling, single point]. In the case of `Cc1ccc2nc3n(c2c1)[C@@H](CNCc1ccc2c(c1)OCO2)COC3`, the CC50 is reported as 31.4 µM [falling, partial curve]. With `Cc1ccc(C(=O)N2CCC(Cc3nc(-c4ccccc4)no3)CC2)s1` the CC50 was 17.2 µM [falling, partial curve]. For `Cc1cccc(-c2cnc3[nH]cc(CC(=O)N4CCOCC4)c3c2)c1`, the CC50 was 31.4 µM [falling, partial curve]. For `CCOc1ccc(C(=O)N2CCC(Cc3nc(-c4ccc(F)cc4)no3)CC2)cc1OCC`, the CC50 was 3.43 µM [falling, full curve]. For `CC(=O)Nc1ccc(C(=O)N2CCC3(CC2)N=C(c2ccc(Cl)cc2)NO3)cc1`, the CC50 was 17.2 µM [falling, partial curve]. For `CN(Cc1cccnc1)c1ccc2ncc(Nc3ccc(C(F)(F)F)cc3)n2n1`, the CC50 was 22.2 µM [falling, partial curve]. With `COc1cc(NC(=O)c2cc3n(n2)CC(c2ccc(Br)cc2)OC3)cc(OC)c1OC` (configuration not stated) the CC50 was 24.3 µM [falling, partial curve]. In the case of `O=C(Cc1ccsc1)N1CCC(Cc2nc(-c3ccc(F)cc3)no2)CC1`, the CC50 is reported as 7.69 µM [falling, full curve]. For `COc1ccc2nc3n(c2c1)[C@@H](CNCc1ccc(C(F)(F)F)cc1)COC3`, the CC50 was 35.3 µM [falling, partial curve]. For `Cc1ccccc1C(=O)N1CCN(c2cc(-c3ccc(Cl)cc3)[nH]n2)CC1`, the CC50 was 21.7 µM [falling, partial curve]. For `O=C1Nc2ccccc2OCC12CCN(Cc1ccc(C(F)(F)F)cc1)CC2`, the CC50 was 21.7 µM [falling, partial curve]. With `OC1CC(c2cc(NCCCn3ccc4ccccc43)ncn2)C1` (configuration not stated) the CC50 was 19.3 µM [falling, partial curve, poor fit]. In the case of `COc1ccc(-c2noc(CC3CCN(C(=O)c4ccccc4OC)CC3)n2)cc1`, the CC50 is reported as 13.7 µM [falling, partial curve]. For `O=C(c1ccc(C(F)(F)F)cc1)N1CCC2(CNc3ccccc3[S+](=O)([O-])N2)C1` (configuration not stated), the CC50 was 24.3 µM [falling, partial curve]. In the case of `O=C(CCCc1c[nH]c2ccccc12)N1CCC(c2noc(COc3ccc(F)cc3)n2)CC1`, the CC50 is reported as 21.7 µM [falling, partial curve]. In the case of `COc1ccc(C2Cn3nnc(C(=O)N4CCN(C(=O)Cc5ccccc5C)CC4)c3CO2)cc1` (configuration not stated), the CC50 is reported as 19.3 µM [falling, partial curve]. For `O=C(Cc1c[nH]c2ncc(-c3ccccc3C(F)(F)F)cc12)N1CCOCC1`, the CC50 was 19.8 µM [falling, partial curve]. With `COC(=O)c1cccc(C(=O)N2CCC(Cc3nc(-c4ccc(OC)cc4)no3)CC2)c1` the CC50 was 10.9 µM [falling, partial curve].
